Assay results from the supplement of paper PMC7826260.
Some of the results follow. Each Rep nickase domain was tested in vitro on the same pool of single strands (1 h at 37 °C, 3 µM enzyme); the outer parts of the 90-letter strands are left off. The score is log2 (uncut reads / reads without enzyme); uncut sequences lie near 0, cut ones below; no hit call is given. Shares of all reads are compared; uncut strands gain when others are lost, and binding without cutting may add a little.

Tests used:
Assay in all cases: uncleaved DNA left, log2 of reads against the no-enzyme library (log2 ratio); higher = less cleavage (more negative = more Rep cleavage of the k-mer); sequences stand for … in CTCGTCCG…ACCGGAGA
[1] = test system: T1, Rep nickase domain of Muscovy duck circovirus
T1 sequence (Rep 1-111, printed without the tag): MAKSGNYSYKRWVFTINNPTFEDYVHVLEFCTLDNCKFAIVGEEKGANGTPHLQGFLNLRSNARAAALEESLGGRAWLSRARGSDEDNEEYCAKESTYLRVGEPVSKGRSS
Description: (§1)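 A pool of 90-nt single-stranded DNAs with seven random bases just before the constant AC of the nick site (name = the seven bases) was cut by 3 µM recombinant His6-SUMO-tagged Rep nickase domain (300 nM DNA, 50 mM HEPES pH 8.0, 50 mM NaCl, 1 mM MnCl2, 1 h, 37 °C, three replicates). Uncut DNA was amplified and sequenced.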

[2] = test system: T2, Rep nickase domain of banana bunchy top virus
T2 sequence (Rep 1-94, printed without the tag): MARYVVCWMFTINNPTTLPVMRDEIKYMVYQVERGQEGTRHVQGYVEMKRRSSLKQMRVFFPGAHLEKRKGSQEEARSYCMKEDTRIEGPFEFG
Description: as §1

[3] = test system: T3, Rep nickase domain of cabbage leaf curl virus
T3 sequence (Rep 1-116, printed without the tag): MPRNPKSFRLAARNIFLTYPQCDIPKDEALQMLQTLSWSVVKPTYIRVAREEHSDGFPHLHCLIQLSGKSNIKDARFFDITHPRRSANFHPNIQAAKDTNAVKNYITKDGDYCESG
Description: as §1

[4] = test system: T4, Rep nickase domain of chickpea chlorotic dwarf virus
T4 sequence (Rep 1-124, printed without the tag): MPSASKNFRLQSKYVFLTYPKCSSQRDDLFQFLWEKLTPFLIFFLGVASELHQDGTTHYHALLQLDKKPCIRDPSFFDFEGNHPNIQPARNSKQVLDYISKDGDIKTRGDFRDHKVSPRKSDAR
Description: as §1

[5] = test system: T5, Rep nickase domain of faba bean necrotic yellows virus
T5 sequence (Rep 1-98, printed without the tag): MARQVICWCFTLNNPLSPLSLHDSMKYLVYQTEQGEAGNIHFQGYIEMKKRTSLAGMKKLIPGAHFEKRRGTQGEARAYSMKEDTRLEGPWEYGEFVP
Description: as §1

[6] = test system: T6, Rep nickase domain of maize striate mosaic virus
T6 sequence (Rep 1-117, printed without the tag): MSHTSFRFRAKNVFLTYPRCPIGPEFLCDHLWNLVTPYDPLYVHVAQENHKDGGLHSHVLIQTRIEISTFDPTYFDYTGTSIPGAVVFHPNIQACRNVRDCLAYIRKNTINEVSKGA
Description: as §1

[7] = test system: T7, Rep nickase domain of porcine circovirus 2
T7 sequence (Rep 2-116, printed without the tag): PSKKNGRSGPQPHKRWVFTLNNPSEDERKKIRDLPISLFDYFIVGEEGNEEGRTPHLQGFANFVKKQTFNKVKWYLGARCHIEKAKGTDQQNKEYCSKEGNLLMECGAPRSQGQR
Description: as §1

[8] = test system: T8, Rep nickase domain of tomato golden mosaic virus
T8 sequence (Rep 1-124, printed without the tag): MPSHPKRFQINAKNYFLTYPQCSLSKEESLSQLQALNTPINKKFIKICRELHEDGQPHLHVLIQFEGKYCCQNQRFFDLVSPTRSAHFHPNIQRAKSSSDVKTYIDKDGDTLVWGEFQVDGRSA
Description: as §1

[9] = test system: T9, Rep nickase domain of tomato yellow leaf curl virus
T9 sequence (Rep 1-136, printed without the tag): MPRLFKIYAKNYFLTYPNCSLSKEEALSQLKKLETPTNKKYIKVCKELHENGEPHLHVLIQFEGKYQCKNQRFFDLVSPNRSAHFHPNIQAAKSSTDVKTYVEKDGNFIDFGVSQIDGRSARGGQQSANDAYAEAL
Description: as §1

[10] = test system: T10, Rep nickase domain of wheat dwarf virus
T10 sequence (Rep 1-137, printed without the tag): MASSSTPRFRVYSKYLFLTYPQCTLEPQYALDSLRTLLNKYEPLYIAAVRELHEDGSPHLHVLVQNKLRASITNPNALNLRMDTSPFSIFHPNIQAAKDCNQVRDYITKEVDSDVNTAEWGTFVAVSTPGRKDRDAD
Description: as §1

Sequence	uncleaved DNA left (log2) [1]	uncleaved DNA left (log2) [2]	uncleaved DNA left (log2) [3]	uncleaved DNA left (log2) [4]	uncleaved DNA left (log2) [5]	uncleaved DNA left (log2) [6]	uncleaved DNA left (log2) [7]	uncleaved DNA left (log2) [8]	uncleaved DNA left (log2) [9]	uncleaved DNA left (log2) [10]
TACCGAA	-0.0401	-0.0202	0.0446	-0.738	0.0836	-0.488	-0.351	0.0415	-0.171	-0.11
GAGCTAA	-0.0677	-0.0533	-0.0468	0.327	-0.159	0.72	-0.592	-0.23	-0.116	-0.0766
AACTCAA	-0.0307	-0.00811	-0.0295	-0.768	-0.029	-0.636	-0.892	0.00367	-0.0778	-0.0318
GAGTTGT	-0.153	-0.568	0.172	-0.171	-0.22	0.0795	-2.94	0.034	-0.00796	0.0723
AAATCGT	-0.473	-0.0824	-3.7	-2.87	-0.0738	-2.35	-2.91	-1.27	-0.0193	-1.54
CAACTAT	-0.0655	-0.0179	-0.706	-2.89	-0.131	-0.759	-0.248	-0.143	-0.175	-0.304
TTCCAAT	-0.0107	0.046	0.0757	-0.193	-0.115	-0.256	-0.168	-0.116	-0.0629	-0.00921
GAAATTA	0.0288	0.102	0.194	-0.427	0.0547	0.914	-0.0291	0.0416	0.209	0.128
TGAAGTC	-0.091	-0.122	-0.0538	-0.308	0.0714	-0.326	0.0255	-0.0514	-0.0516	-0.174
GCACATT	0.0394	-0.0275	0.454	1.05	-0.15	1.23	0.00775	-0.203	-0.083	0.0386
TGTGTGG	0.0664	-0.0254	0.299	0.417	0.077	0.184	0.233	0.0689	0.0826	0.0922
TAAGATG	0.0936	0.18	0.384	1.31	0.0868	1.52	0.272	0.268	-0.0308	0.209
ACCTATT	-3.28	-1.92	-1.07	-2.7	-0.13	-0.934	-3.35	-0.139	0.116	-0.657
GTACCGA	0.112	0.0416	0.277	0.514	0.0419	0.618	0.0736	0.0554	0.0272	0.118
GCCTCGC	-0.0262	0.0752	-0.252	-0.0386	0.0188	-0.491	0.0608	0.0176	0.0282	-0.0452
GTGCCCC	-0.158	-0.08	0.282	0.757	-0.117	1.67	0.0197	0.0165	0.0158	-0.0986
CACAAAT	0.0479	0.109	-0.142	-2.04	-0.0178	-0.589	-1.21	0.0322	-0.112	0.192
GGAAGAG	0.0911	0.111	0.573	1.45	0.0322	1.06	0.33	0.0812	0.00752	0.152
TTGGGTG	0.0548	-0.0508	-0.433	-0.531	-0.0552	-0.698	0.0958	-0.159	-0.0344	-0.202
TTGTGGT	-0.221	-0.106	-0.189	-0.31	-0.0602	-0.574	-2.52	-0.0408	0.0241	-0.0188

Sequence	uncleaved DNA left (log2) [1]	uncleaved DNA left (log2) [2]	uncleaved DNA left (log2) [3]	uncleaved DNA left (log2) [4]	uncleaved DNA left (log2) [5]	uncleaved DNA left (log2) [6]	uncleaved DNA left (log2) [7]	uncleaved DNA left (log2) [8]	uncleaved DNA left (log2) [9]	uncleaved DNA left (log2) [10]
CTATGAG	0.0845	-0.00664	-0.767	-0.126	0.183	-1.09	0.185	-0.109	0.0873	-0.0947
CCCATGG	0.0559	0.0109	-0.279	-0.0989	-0.0859	-0.926	0.0998	-0.117	0.0247	0.00547
GATTATG	-0.0295	-0.0879	-0.34	-0.265	-0.0405	-0.88	-0.109	-0.078	0.0306	-0.0481
ATGAGTT	0.0221	-0.0537	-0.0119	-1.35	-0.0532	-0.00492	-0.714	0.0937	-0.041	-0.023
AAAGCTC	0.0227	-0.0172	0.188	0.272	0.0443	0.862	0.131	0.119	-0.0711	-0.0115
TTCATAC	-0.0325	-0.1	0.103	-0.791	0.0417	-0.462	-0.00315	0.00425	0.038	-0.0484
TGCACAC	-0.0139	0.114	0.234	0.514	0.0157	0.601	0.0246	-0.0573	0.0112	0.0929
CTGAGGT	0.131	0.0755	0.453	1.31	0.0458	1.4	0.0289	0.133	0.00343	-0.0299
ATGCAAA	-0.0534	-0.0844	-0.161	-0.183	-0.0451	-0.901	0.0338	-0.0243	-0.0761	-0.0816
CTAGGGA	0.0582	0.123	0.422	0.773	0.0728	0.643	0.0843	0.0456	-0.0228	0.0743
TCGGTTG	0.0311	-0.117	0.00162	0.355	-0.0149	0.721	0.00818	-0.0993	-0.129	-0.0651
GGGCCCC	-0.108	-0.0168	0.678	1.51	-0.0438	2.03	0.149	0.0713	-0.0778	0.0676
GAGCGAT	0.0844	-0.00183	0.199	0.744	0.0395	1.23	-0.105	0.115	0.0811	0.0765
TTAGACC	0.104	0.0878	0.256	0.34	0.106	-0.306	0.0547	0.102	0.0959	0.135
CTCCGTA	0.0528	0.0517	0.000593	-0.155	0.081	-0.188	0.0813	-0.0368	0.0923	0.0217
CCGGGTA	0.182	0.00978	0.376	0.574	0.0284	1.63	0.0589	0.0461	0.136	0.0623
AATAGCC	0.0897	0.0499	-0.167	-0.446	0.109	-1.23	0.129	0.0765	0.0286	0.0116
TACAGAG	-0.0289	-0.00998	-0.616	-0.74	0.095	-1.15	0.126	0.0127	0.0382	-0.0653
GGCCGGA	0.111	0.0465	0.67	1.43	0.0165	1.81	0.219	0.0957	0.0527	0.129
TGTACTT	-0.0586	-0.0254	0.161	-1.04	0.000407	0.913	-0.879	-0.059	0.0621	0.000434

Sequence	uncleaved DNA left (log2) [1]	uncleaved DNA left (log2) [2]	uncleaved DNA left (log2) [3]	uncleaved DNA left (log2) [4]	uncleaved DNA left (log2) [5]	uncleaved DNA left (log2) [6]	uncleaved DNA left (log2) [7]	uncleaved DNA left (log2) [8]	uncleaved DNA left (log2) [9]	uncleaved DNA left (log2) [10]
CTGTTTA	-0.0471	-0.158	-0.163	-1.26	-0.0491	-0.457	-0.383	-0.091	-0.155	-0.121
TTTCAGG	0.0255	-0.00109	0.416	1.28	-0.0591	1.74	-0.0205	0.0668	-0.108	-0.0831
CATCCCA	-0.0334	0.0983	-0.0532	-1.87	0.0501	-0.434	-0.184	-0.0646	0.0409	0.101
CGTGGAA	0.0429	-0.082	0.24	0.651	-0.0343	0.734	0.00177	-0.0678	-0.0632	-0.00812
TACCTTG	-0.131	-0.0727	-0.45	-2.11	-0.0915	-1.09	-0.56	-0.167	-0.122	-0.149
GCGAGAT	0.0571	0.097	0.409	1.21	0.00691	1.43	0.0333	-0.0229	0.0184	0.0731
TGCTTAT	-0.259	-0.0328	0.197	-0.456	0.0419	-0.429	-1.14	0.0381	-0.0478	0.0227
CGCGCTC	-0.187	-0.177	-0.218	-0.25	-0.164	-0.33	-0.0448	-0.0626	-0.139	-0.0248
ACTTGTG	0.114	-0.00222	-0.399	1.09	0.0504	0.168	0.0482	-0.0637	0.0328	0.0669
AAAGGTA	0.147	0.162	0.241	1.15	0.0841	1.45	0.223	0.2	-0.0149	0.106
CCTTGCG	-0.0147	-0.0376	-0.261	1.27	0.0484	0.834	0.0872	-0.121	-0.289	-0.0683
CGCACTT	-0.0414	-0.0328	0.0497	0.0362	-0.164	1.26	-0.0817	-0.193	0.0458	0.115
CCCGTCA	-0.181	-0.0612	0.0331	-0.345	-0.14	-0.0804	-0.283	-0.0696	-0.25	-0.0994
CCATTGG	-0.256	-0.234	-0.806	-0.374	-0.0871	-1.26	0.0535	-0.169	0.00871	-0.256
GTTAGAT	0.0203	0.153	0.427	0.973	0.0275	1.7	0.143	0.181	0.178	0.141
ATTTCAT	-0.144	-0.138	0.0413	-0.867	0.0205	-0.551	-0.698	-0.0376	0.0881	0.15
AAAGAAA	0.0341	0.00202	0.0795	-0.254	0.0671	-0.235	0.122	0.0893	-0.0402	0.0694
AGTCTAC	0.042	-0.201	-0.141	-1.31	-0.0221	-0.0747	-0.195	-0.107	0.00393	-0.0238
ACTAAGT	0.14	0.0021	-0.00451	-0.229	0.0986	-0.887	-0.411	0.155	0.034	0.00629
GTTCACG	-0.0257	0.0467	-0.477	-0.585	0.0332	-0.702	0.149	0.0144	-0.069	0.0106
